This passage reports MIC results from US9963467B2, “Boronic acid derivatives and therapeutic uses thereof” (Rempex Pharmaceuticals, Inc., priority 2014, dated 2018).

The test system of the experiment is strains producing class A (KPC) and class D (OXA-48) carbapenemases. As to the kind of experiment: Biapenem MIC of test strains. As to conditions: read-out: Biapenem MIC of test strains.

Broadly, the MIC is the least concentration at which growth counts as inhibited. For `C[C@@H](O)[C@H]1C(=O)N2C(C(=O)[O-])=C(SC3Cn4cnc[n+]4C3)[C@H](C)[C@H]12` (stereo partly shown) [Biapenem, reference compound], the MIC was 16 to 32 µg/mL.
